In all, about 310,000 compounds went through this assay and about 14,000 (4.5%) showed an effect of 50% or more. Effects have a minus sign here. The list shows a part of the results.
What follows are compounds tested against human ether-à-go-go-related gene (hERG) potassium channel (human, UniProt Q12809) (assay: primary screen, population patch clamp on CHO cells stably expressing hERG).
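Further: peak tail current of the secondary pulse compared with the same well before compound.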

Sequence of human ether-à-go-go-related gene (hERG) potassium channel (Q12809 whole entry, looked up): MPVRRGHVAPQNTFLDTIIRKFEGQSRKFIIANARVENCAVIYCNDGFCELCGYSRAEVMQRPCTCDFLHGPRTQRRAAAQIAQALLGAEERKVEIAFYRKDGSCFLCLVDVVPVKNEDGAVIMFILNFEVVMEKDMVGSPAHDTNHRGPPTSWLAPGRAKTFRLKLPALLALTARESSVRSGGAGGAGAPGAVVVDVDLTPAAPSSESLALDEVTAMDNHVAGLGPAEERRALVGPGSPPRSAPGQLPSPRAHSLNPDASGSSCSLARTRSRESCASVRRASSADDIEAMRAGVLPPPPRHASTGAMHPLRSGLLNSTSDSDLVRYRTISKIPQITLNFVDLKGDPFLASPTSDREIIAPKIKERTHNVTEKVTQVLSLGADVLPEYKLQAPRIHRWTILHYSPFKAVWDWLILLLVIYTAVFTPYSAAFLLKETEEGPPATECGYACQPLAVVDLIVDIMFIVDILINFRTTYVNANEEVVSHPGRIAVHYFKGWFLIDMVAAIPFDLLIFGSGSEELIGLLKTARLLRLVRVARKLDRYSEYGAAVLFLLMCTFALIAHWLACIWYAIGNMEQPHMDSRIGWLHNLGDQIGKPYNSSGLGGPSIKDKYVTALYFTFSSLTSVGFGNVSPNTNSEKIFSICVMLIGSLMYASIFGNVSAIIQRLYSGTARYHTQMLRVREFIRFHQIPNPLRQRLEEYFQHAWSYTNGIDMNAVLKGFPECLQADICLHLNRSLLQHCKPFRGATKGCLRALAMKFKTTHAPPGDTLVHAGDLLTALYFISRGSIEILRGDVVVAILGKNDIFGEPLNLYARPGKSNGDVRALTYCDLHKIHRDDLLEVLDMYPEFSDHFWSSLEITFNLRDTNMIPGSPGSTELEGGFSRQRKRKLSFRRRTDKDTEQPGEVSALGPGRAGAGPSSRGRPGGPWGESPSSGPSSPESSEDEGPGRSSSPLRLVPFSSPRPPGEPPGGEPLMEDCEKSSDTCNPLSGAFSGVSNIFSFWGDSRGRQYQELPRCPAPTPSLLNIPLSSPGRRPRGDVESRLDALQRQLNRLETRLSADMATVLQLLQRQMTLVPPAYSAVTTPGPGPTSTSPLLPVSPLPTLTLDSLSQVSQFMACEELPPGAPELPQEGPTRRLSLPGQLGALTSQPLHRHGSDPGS

Compared with `O=C1CC2(CCN(C(=O)c3cccc(Br)c3)CC2)Oc2ccccc21`, `CN1CCC(OC(=O)c2cccc(Br)c2)CC1.Cl` is higher in “hERG current change (%, negative = inhibition) at 10uM” value: -85.5% for the first, -36.3% for the second.

Going from `O=C(N/C(=C\c1ccccc1)C(=O)N1CCCCCC1)c1ccccc1` to `CSc1ccc(/C=C(\C(=O)O)c2ccc(S(=O)(=O)N3CCCC3)s2)cc1`, the “hERG current change (%, negative = inhibition) at 10uM” value falls from 15.2% to -2.55%.

Going from `Cc1sc2ncnc(NCC(c3ccco3)N3CCCC3)c2c1C` (centres unmarked) to `CN(CC(=O)NCC(c1ccco1)N1CCCCC1)S(=O)(=O)c1ccc(Cl)cc1` (centres unmarked), the “hERG current change (%, negative = inhibition) at 10uM” value rises from -51.5% to -33.9%.

First: Cc1ccc(N2C(=O)N(CC(=O)Nc3c(C)cc(C)cc3Cl)C(=O)C2C)cc1 (centres unmarked)
Second: CCN(CC)c1ccc(C=Nc2ccc(C)cc2C)c(O)c1
The “hERG current change (%, negative = inhibition) at 10uM” value of the first is lower: -10.6% for the first, -1.55% for the second.

First: COc1ccc([C@H]2CC(=O)C=C(c3cccc(Cl)c3)C2)cc1OC
Second: COc1ccc(-c2noc(CN(C(=O)c3ccc4c(c3)OCO4)C(C)C)n2)cc1OC
The “hERG current change (%, negative = inhibition) at 10uM” value of the first is lower: -20.4% for the first, -6.78% for the second.

Going from `Cc1ccc(S(=O)(=O)NCC(=O)N2CCOCC2)cc1` to `O=C(c1cc2cccc([N+](=O)[O-])c2oc1=O)N1CCOCC1`, the “hERG current change (%, negative = inhibition) at 10uM” value falls from 20.4% to 3.66%.

First: COc1cc(C(=O)Nc2nnc(CC(C)(C)C)s2)c([N+](=O)[O-])cc1OC
Second: COc1ccc(CCNC(=O)C(NC(=O)OCc2ccccc2)C(C)C)cc1OC (centres unmarked)
The “hERG current change (%, negative = inhibition) at 10uM” value of the first is higher: 8.72% for the first, 6.52% for the second.

Compared with `CCCN(c1ccccc1F)S(=O)(=O)c1cc(-c2cc(C)no2)ccc1OC`, `COc1ccc(CCn2c(C(C)C)nc3oc4ccccc4c(=O)c3c2=O)cc1` is lower in “hERG current change (%, negative = inhibition) at 10uM” value: 6.91% for the first, -75.3% for the second.

First: O=[N+]([O-])c1cc(-c2csc(NCCc3nc4cc(Cl)c(Cl)cc4n3CCCO)n2)ccc1Cl
Second: O=C(CSc1nc2c(sc3ccccc32)c(=O)n1CCCN1CCCC1)NCc1ccco1
The “hERG current change (%, negative = inhibition) at 10uM” value of the first is higher: 3.05% for the first, -73% for the second.

First: C/C(=N\NC(=O)CSc1nc2ccccc2[nH]1)c1ccncc1
Second: Cc1[nH]c2ccccc2c1/C=N/NC(=O)c1cccc(F)c1
The “hERG current change (%, negative = inhibition) at 10uM” value of the first is lower: -1.11% for the first, 6.23% for the second.

Going from `O=C(CCC(=O)N(CC(=O)NC1CCCC1)C1CCCC1)Nc1ccccn1` to `CC(C)C[C@H](NC(=O)N1CCn2c1nc1ccccc12)C(=O)NC1CC1`, the “hERG current change (%, negative = inhibition) at 10uM” value rises from -15.7% to -3.4%.

Compared with `Nn1c(Cc2ccccc2F)nnc1SCCOc1ccc(Cl)cc1`, `FC(F)(F)c1ccc(Oc2ccc3ccccc3c2Br)nc1` is higher in “hERG current change (%, negative = inhibition) at 10uM” value: -14.1% for the first, 6.56% for the second.

Going from `Cn1cc(Br)c(C(=O)NNC(=O)Cc2ccc(Cl)cc2)n1` to `CSc1ccccc1NC(=O)CN(C)Cc1ccc(Br)cc1`, the “hERG current change (%, negative = inhibition) at 10uM” value falls from 3.6% to -12.3%.

First: O=C(/C=C/c1ccco1)NCC1OCCc2ccccc21 (centres unmarked)
Second: O=C(Cn1cc([N+](=O)[O-])cn1)NCc1ccccc1
The “hERG current change (%, negative = inhibition) at 10uM” value of the first is lower: 16.7% for the first, 20.9% for the second.

First: O=C1CN(S(=O)(=O)c2ccccc2)CC(=O)N1CCc1ccccc1
Second: CCCc1nc2ccccc2c(C(=O)OCC(=O)Nc2ccc(S(=O)(=O)N3CCOCC3)cc2)c1CC
The “hERG current change (%, negative = inhibition) at 10uM” value of the first is lower: 11.6% for the first, 12% for the second.

First: CC(C)(C)CN1CCN(CCCc2ccccc2)C(CCO)C1 (centres unmarked)
Second: CC(C)CCN1CCN(Cc2ccc(Oc3ncccn3)cc2)CC1CCO (centres unmarked)
The “hERG current change (%, negative = inhibition) at 10uM” value of the first is lower: -53.7% for the first, -9.21% for the second.

First: C/C(=N\NC(=O)c1csc(C)c1C)c1ccco1
Second: Cc1cc(NC(=O)C(C)C)ncc1NC(=O)c1cccc(F)c1
The “hERG current change (%, negative = inhibition) at 10uM” value of the first is lower: -12% for the first, 9.05% for the second.

Going from `Cc1cccc(N(CC(N)=O)C2SC(=O)NC2=O)c1` (centres unmarked) to `Cc1ccc(NC(=O)N2CCCC2C(=O)NCc2cccs2)cc1` (centres unmarked), the “hERG current change (%, negative = inhibition) at 10uM” value rises from -17.3% to -2.17%.

Compared with `CC(=O)N1CN(C2CCCC2)Cc2c1sc1c2CCCC1`, `NC(=O)Cn1c(=O)n(C2CCCCC2)c(=O)c2c3c(sc21)CCCCC3` is lower in “hERG current change (%, negative = inhibition) at 10uM” value: 3.82% for the first, -6.3% for the second.

Compared with `Cc1onc(-c2c(F)cccc2Cl)c1C(=O)Nc1sc2c(c1C(N)=O)CCC2`, `Cc1ccsc1CN(C)C(=O)C(NC(=O)c1cccc(S(=O)(=O)N2CCOCC2)c1)C(C)C` (centres unmarked) is lower in “hERG current change (%, negative = inhibition) at 10uM” value: -9.23% for the first, -37.7% for the second.

First: CCOC(=O)C1(CCCc2ccccc2)CCN(C(=O)COC)CC1
Second: COC(=O)C1CCN(S(=O)(=O)Cc2ccccc2Cl)CC1
The “hERG current change (%, negative = inhibition) at 10uM” value of the first is lower: -25.9% for the first, 16.6% for the second.

Going from `CN(C)S(=O)(=O)c1cccc(NC(=O)COc2ccc3ccccc3c2)c1` to `CCOc1ccc(CCNC(=O)c2ccc(CNS(=O)(=O)c3ccccc3)cc2)cc1OCC`, the “hERG current change (%, negative = inhibition) at 10uM” value rises from -7.08% to 8.71%.

Going from `COC(=O)c1[nH]c2ccc(Cl)cc2c1NC(=O)Oc1ccccc1` to `COCCOc1ccc(C(F)(F)F)cc1NC(=O)c1ccc(C)cc1`, the “hERG current change (%, negative = inhibition) at 10uM” value falls from 2.98% to -0.151%.

First: CN(C)S(=O)(=O)c1ccc(S(=O)(=O)NCc2ccc3c(c2)OCO3)cc1
Second: Cc1nn(C)c(C)c1CNC(=O)Nc1ccc2c(c1)OCO2
The “hERG current change (%, negative = inhibition) at 10uM” value of the first is lower: 9.81% for the first, 12% for the second.

Compared with `N=C1SC(c2ccccc2)C(=O)N1c1ncc(Cc2ccccc2Cl)s1` (centres unmarked), `CCC(=O)N(Cc1ccc(S(N)(=O)=O)cc1)C1CC(=O)N(c2ccc(OC)cc2)C1=O` (centres unmarked) is higher in “hERG current change (%, negative = inhibition) at 10uM” value: 1.65% for the first, 10.3% for the second.

First: C=CCOc1ccc(/C=C/C(C)=N\O)cc1
Second: COc1ccc2c(c1)c(C(=O)N/N=C/c1ccc(O)c(O)c1)c(C)n2C
The “hERG current change (%, negative = inhibition) at 10uM” value of the first is lower: 4.84% for the first, 9.18% for the second.

Going from `COc1cccc(OCCCCN2CC(C)OC(C)C2)c1.O=C(O)C(=O)O` (centres unmarked) to `Cc1ccccc1N1CCN(C2CCCN(C(=O)c3cc(CC(C)C)nn3C)C2)CC1` (centres unmarked), the “hERG current change (%, negative = inhibition) at 10uM” value falls from -4.73% to -31.7%.

First: CC1CCN(S(=O)(=O)c2cn(CC(=O)Nc3ccc(C#N)cc3)cn2)CC1
Second: O=C(OC1CCOC1=O)C1CCN(S(=O)(=O)c2c(Cl)cccc2Cl)CC1 (centres unmarked)
The “hERG current change (%, negative = inhibition) at 10uM” value of the first is higher: 7.1% for the first, -8.18% for the second.
